Results from the supplement of paper PMC3334620.
In all, about 33,000 sequences were measured (“E-score (-0.5 to 0.5)”: median about -0.041, highest 2% from about 0.37 on). This is one part of the list.

target: T1, Ecm22 (UniProt Q05958); test: PBM E-score (8-mer binding enrichment) (E-score (-0.5 to 0.5)); higher = stronger / more preferred TF binding; most listed sequences are background and not binding sites; settings: protein concentration: 200 nM; construct: GST-full length
T1 sequence: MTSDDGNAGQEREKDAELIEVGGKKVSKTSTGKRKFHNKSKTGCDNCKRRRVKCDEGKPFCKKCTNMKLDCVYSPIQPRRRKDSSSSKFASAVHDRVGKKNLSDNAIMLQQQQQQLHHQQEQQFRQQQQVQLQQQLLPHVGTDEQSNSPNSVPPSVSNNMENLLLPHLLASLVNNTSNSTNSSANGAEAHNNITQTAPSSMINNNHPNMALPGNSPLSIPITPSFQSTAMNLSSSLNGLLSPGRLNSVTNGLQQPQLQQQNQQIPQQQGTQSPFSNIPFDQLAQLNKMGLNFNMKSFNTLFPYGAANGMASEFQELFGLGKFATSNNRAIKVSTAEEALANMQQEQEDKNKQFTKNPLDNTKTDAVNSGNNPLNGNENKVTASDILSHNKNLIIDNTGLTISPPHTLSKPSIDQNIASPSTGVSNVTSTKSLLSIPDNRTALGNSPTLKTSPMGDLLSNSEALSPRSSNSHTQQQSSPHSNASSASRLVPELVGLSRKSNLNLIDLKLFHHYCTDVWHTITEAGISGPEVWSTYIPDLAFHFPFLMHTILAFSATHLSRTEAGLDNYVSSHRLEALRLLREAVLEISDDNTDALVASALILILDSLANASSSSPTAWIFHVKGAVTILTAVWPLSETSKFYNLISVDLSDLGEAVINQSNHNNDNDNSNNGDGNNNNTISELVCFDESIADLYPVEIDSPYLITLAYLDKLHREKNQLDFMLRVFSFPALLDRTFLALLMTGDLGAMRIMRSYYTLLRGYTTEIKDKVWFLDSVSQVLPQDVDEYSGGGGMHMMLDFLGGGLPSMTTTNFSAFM
In short: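 Yeast transcription factors carrying a GST tag, as full-length proteins or DNA-binding domains, were produced by PURExpress in vitro transcription/translation. About 100-200 nM protein was applied to universal all-10-mer Agilent arrays, double-stranded by primer extension on fresh or once-stripped slides. Bound protein was detected with fluorescent anti-GST, and scans were normalised with masliner. The Universal PBM Analysis Suite gave each ungapped eight-base word, pooled with its reverse complement, an E-score, a modified Wilcoxon-Mann-Whitney statistic.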

Row | Sequence | PBM E-score
1 | ATATGTAG | -0.256
2 | ATGCAGAA | -0.0632
3 | GCAGTAAA | -0.0139
4 | AGCTTAAC | 0.0691
5 | AGTTTTCC | 0.143
6 | CATACTTC | -0.128
7 | CTTCCTTC | -0.0503
8 | AGAAAGAT | -0.02
9 | TGCGGCAA | -0.186
10 | GTAACCAC | -0.0757
11 | AAGGTGTC | -0.0799
12 | ACGGTAGT | 0.0637
13 | CGCAGGAG | -0.122
14 | AATAGGGG | -0.11
15 | GCCCACAC | -0.273
16 | AAACGCTG | 0.0348
17 | ATTAGGGA | -0.14
18 | CTATGCTC | -0.211
19 | CTTTTACC | -0.0226
20 | CTCTGGCA | -0.202
21 | AATCAGCC | -0.107
22 | TTCTTCAA | -0.138
23 | CTGTTGTC | -0.108
24 | TAAGATAA | -0.0986
25 | ATCTTGAA | -0.0726

Row | Sequence | PBM E-score
26 | ACAGGGTC | -0.143
27 | AGGGTACA | -0.0565
28 | CGTCTTAA | 0.0348
29 | GTTTATGA | 0.13
30 | CGATGTGA | 0.123
31 | ATACCTGG | -0.25
32 | CAGTGAGA | -0.192
33 | CGCTTTTC | 0.152
34 | GACAAGAC | -0.0125
35 | TCCAAACA | -0.186
36 | AACGTTGT | 0.15
37 | CGAAGACG | 0.0817
38 | AGTCGGTC | 0.194
39 | AATGTTAC | 0.0907
40 | CGGTCTTA | -0.0511
41 | AGCTTCTC | 0.101
42 | GAACTTAC | 0.0627
43 | GGTGGCGA | 0.153
44 | CACATACC | -0.0698
45 | CGGACAAA | 0.0646
46 | GTCACGAA | 0.0416
47 | CTGGACGA | -0.246
48 | AGCAAAAT | 0.0427
49 | CGTGGGCC | -0.165
50 | AAAACGGC | 0.154

Row | Sequence | PBM E-score
51 | CGGAACAA | 0.168
52 | CCTACTAA | -0.119
53 | TGCGAGAA | 0.267
54 | CCGGTTCC | -0.0978
55 | ACTTATCG | 0.0244
56 | CGAGCCCG | 0.224
57 | CCTGGCAG | -0.123
58 | CCGTGGAA | -0.121
59 | ACTGCAAA | -0.129
60 | TATGCTGA | -0.203
61 | CCCTAACC | -0.264
62 | ACTCCTAC | -0.222
63 | AGACTCGG | -0.0981
64 | CTGCCCAC | -0.311
65 | GCATAAGC | -0.0897
66 | CAACATTA | 0.00217
67 | ACCACTCT | -0.111
68 | ACGTCGAC | 0.0174
69 | ATACCAAG | 0.0186
70 | CATGTGTC | -0.116
71 | CCCAGAGA | -0.156
72 | ACCATACC | -0.0348
73 | AATATACC | 0.00797
74 | ATGAACCA | -0.0923
75 | ATCAGCAT | -0.0651

Row | Sequence | PBM E-score
76 | ACGAGGAG | 0.349
77 | AAGTGGGC | 0.0397
78 | AAAAGTTT | -0.145
79 | CCCTACGA | 0.161
80 | CGACCTCA | 0.0343
81 | CGCTGATA | 0.0357
82 | ACGGCTGG | 0.069
83 | ACAGGCGG | -0.222
84 | AGGTACGG | 0.424
85 | ATGACATG | -0.182
86 | CAGAGTAG | -0.136
87 | ACGACAAG | 0.334
88 | GACAGTCC | -0.149
89 | GTCAAAAA | -0.139
90 | CTTCGAGA | -0.0893
91 | CCTAGTCA | -0.118
92 | AAAGTGAC | -0.12
93 | ACTGGCCT | -0.0517
94 | TAAATATA | 0.109
95 | GCTTGGCA | -0.0829
96 | AGAGGCAC | -0.088
97 | CAGTTCAC | -0.0389
98 | GTGCGCGA | 0.0692
99 | CACACAAA | 0.0355
100 | ATATTGTG | 0.0189

Row | Sequence | PBM E-score
101 | ATTAACAG | -0.0716
102 | GTATGGCA | 0.161
103 | GTCAGCTA | -0.0674
104 | CAGTATCA | -0.0764
105 | ATGCCACG | -0.18
106 | CACTTGTA | -0.0815
107 | TAACTGAA | -0.154
108 | CTGAGCTA | -0.153
109 | TTAGAAAA | -0.197
110 | ACTTTTCG | 0.166
111 | ACCACGGA | -0.111
112 | GCAGTGCA | -0.0696
113 | CCACGCAC | -0.147
114 | ATATGGTC | 0.0594
115 | ATCTGCCA | -0.0853
116 | CTCGCTTA | 0.41
117 | AAATTGTT | -0.071
118 | ATAACCTG | -0.0622
119 | ATGATTGA | 0.0922
120 | ACAGCTGC | -0.104
121 | GGAGGGCC | -0.333
122 | CTGACCTA | 0.0156
123 | ACCACACA | 0.0735
124 | AGCTGAAT | -0.0806
125 | CATCAGTA | -0.0123

Row | Sequence | PBM E-score
126 | CCTAACGC | 0.025
127 | CACTGTTA | -0.0375
128 | AACCGAGG | 0.274
129 | CGTTCCTC | 0.452
130 | CATTGTAA | 0.0755
131 | ACCGCTGC | -0.0928
132 | ACGACTCC | 0.289
133 | CATCATGA | -0.0471
134 | AACCGCAG | -0.166
135 | ATAACTTA | 0.025
136 | CCCCGCCG | -0.165
137 | GAGTTGTA | 0.0214
138 | CATTAACA | -0.0369
139 | CGACTGAG | 0.0682
140 | AGTGGAAT | -0.0777
141 | AGTACCGA | 0.0799
142 | AGAGCGCC | -0.0862
143 | CCACAGGC | -0.353
144 | GCCACAAC | -0.055
145 | AAGCCCGC | -0.00641
146 | GACTGATC | -0.104
147 | AGCCATCG | 0.149
148 | GATTGACC | -0.0386
149 | ACGAGCCA | 0.404
150 | AGGGTCTG | -0.298

Row | Sequence | PBM E-score
151 | GATTGACA | 0.0347
152 | AGTCTAAT | -0.141
153 | CCTGTGCA | -0.0315
154 | CAGACCAG | -0.12
155 | CCAAAGAA | -0.103
156 | AGACATTC | -0.159
157 | CAGCACTG | -0.217
158 | GGCAAGGA | -0.151
159 | CCGGTAAA | 0.081
160 | AAGAGAGC | -0.147
161 | ACTCGACC | 0.0863
162 | ATAGATAA | 0.0681
163 | CACTGTAG | 0.0186
164 | ATGGCGCC | -0.237
165 | AGACGGCA | -0.0953
166 | CCGATCCG | 0.198
167 | TATGTCAA | 0.0884
168 | AATCGCGA | 0.261
169 | AAGTCGCA | 0.176
170 | CCATAAGC | -0.248
171 | AAGCGGGC | 0.00141
172 | ATACCTCG | 0.241
173 | CCTATCGC | 0.0262
174 | CTGTCTAA | -0.02
175 | TCTAGGCA | -0.207

Row | Sequence | PBM E-score
176 | CACGGTCG | 0.0505
177 | TCCAAGCA | -0.11
178 | GATTCCGC | -0.0807
179 | GGCTTTTA | -0.165
180 | ATCGTAAC | 0.368
181 | ACGGTGGG | 0.0966
182 | CGGTACCG | 0.234
183 | AATATGTC | 0.0452
184 | GCTGGTCC | -0.137
185 | AAATAAGC | 0.0207
186 | ACTTGTAA | -0.324
187 | CGCGAGGA | 0.202
188 | GCCAACTA | -0.17
189 | ATTTAGTC | -0.0668
190 | CGAAAAGC | 0.0459
191 | CCATTCGC | -0.0115
192 | TGTCGTAA | 0.428
193 | CAGAGGAA | -0.12
194 | CCCGTGTC | 0.0329
195 | TGGATACA | -0.057
196 | CATCGGGC | -0.133
197 | AAAGTAAG | -0.0711
198 | ACGACTAA | 0.231
199 | CTAAACAC | -0.152
200 | CCCGTTGA | -0.12

Row | Sequence | PBM E-score
201 | GGCGGACC | -0.242
202 | GCCAGCAA | -0.198
203 | AGGGATCG | 0.0528
204 | CAAGGCCA | -0.0891
205 | CGTGAGGC | -0.133
206 | CACCTCAG | -0.224
207 | ACGACTAT | 0.323
208 | CTCATCCC | 0.0246
209 | GGCGGGAA | -0.139
210 | CAGATTGC | 0.0722
211 | ACCGCCCT | -0.161
212 | CATCGATA | 0.127
213 | ACACCCCC | -0.424
214 | CGCCGACG | 0.00135
215 | GTGGGAAC | 0.0336
216 | CAGCTTCC | -0.149
217 | GGCGCCAC | -0.0732
218 | CAGCTCCC | -0.0851
219 | GGTGACGA | 0.0878
